The record followed here is the RNAGym collection of RNA variant scans (doi:10.1073/pnas.2313332121).

Variants at the floor of the assay are shown more often than the library holds them.

The labels stand for the following.
B1: TPR 5TU (parent)
chain: GGAUCUUCUCGAUCUAACAAAAAAGACAAAUCUGCCACAAAGCUUGAGAGCAUCUUCGGAUGCAGAGGCGGCAGCCUUCGGUGGCGCGAUAGCGCCAACGUUCUCAACUAUGACACGCAAAACGCGUGCUCCGUUGAAUGGAGUUUAUCAUG

In this data set the parent is B1. The experiment in a line: polymerase ribozyme fitness, log enrichment relative to wild type (log ratio); higher = more active; in vitro selection for triplet polymerase activity. The essentials:
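A single round of triplicate in vitro selection, including frozen incubation at −7 °C, was applied to PCR-built, transcribed mutant libraries of each subunit of a heterodimeric triplet polymerase ribozyme. Illumina sequencing of input and output libraries retained genotypes with ≥10 input reads and ≥1 read per output. Fitness is the base-2 logarithm of genotype enrichment divided by wild-type enrichment, from inverse-variance-weighted replicate averages.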
For A26G A47G U55G G140C, the “polymerase ribozyme fitness (log ratio)” value is ≤ -4.2.
The figure for A26U A41G A60C G94C C116U G124A is ≤ -4.2.
On to A26U A52U U135A, for which the “polymerase ribozyme fitness (log ratio)” value is -2.83.
A26U A47C A49G G68C G94C G124A: the “polymerase ribozyme fitness (log ratio)” value was ≤ -4.2.
With A26U C35U G48C A49U G50A A66U C76U C93U A150U, the “polymerase ribozyme fitness (log ratio)” value was ≤ -4.2.
For G25C A60G C93U, the “polymerase ribozyme fitness (log ratio)” value was ≤ -4.2.
Regarding G25C C38U A89U U104G G133C, the “polymerase ribozyme fitness (log ratio)” value was ≤ -4.2.
The figure for G25U C43U G71U G88U G126C G140C is ≤ -4.2.
The figure for A26C A52C C85U G117A A142G is -3.88; for A26G G81A A97U it is ≤ -4.2.
For the variant A26U A49C U53G C75G G84C A113U C125U U144G, the “polymerase ribozyme fitness (log ratio)” value was ≤ -4.2.
In the case of G25U A30G C51A C105U G133C, the “polymerase ribozyme fitness (log ratio)” value is ≤ -4.2.
Then G25C C35A G68A, with ≤ -4.2; and A26U A41C C72U C96U C108A C123U, with ≤ -4.2.
The figure for G25U A30U C32A C51G U53A U55C A73C C79A A91C G94C A97C C105U A119C C149U is ≤ -4.2.
The figure for A26C A41G A47C C69G G83A C93U G124U is ≤ -4.2.
Consider A26G A30G A52U C87U A89G U102A U139C, for which the “polymerase ribozyme fitness (log ratio)” value was ≤ -4.2.
Regarding A26G A73U C95U G133U, the “polymerase ribozyme fitness (log ratio)” value was ≤ -4.2.
For the variant G25C U61A C85G U111G C114A, the “polymerase ribozyme fitness (log ratio)” value is ≤ -4.2.
Take G25U U44A U55A U139A U144A: the “polymerase ribozyme fitness (log ratio)” value is ≤ -4.2.
In the case of A26U A73U C93U, the “polymerase ribozyme fitness (log ratio)” value is ≤ -4.2.
Regarding A26G A37G A73G C85U C93G, the “polymerase ribozyme fitness (log ratio)” value was ≤ -4.2.
The figure for A26U C69G A91G is ≤ -4.2; for G25C G67A it is ≤ -4.2; for G25U G84U G94A A121U A147G U148G it is ≤ -4.2.
The figure for A26C C57U C99U A138G is ≤ -4.2; for A26C C32G G34C U44A A107G C131U U139C U145C it is ≤ -4.2.
Regarding A26U C35A U56A C85U, the “polymerase ribozyme fitness (log ratio)” value was ≤ -4.2.
The figure for A26G U55A U82G A89U U90G A106G U139G is ≤ -4.2; for G25C U77A A142U it is ≤ -4.2.
The figure for G25U U45A G48U G74A C93U C114U is ≤ -4.2; for G25C A39G A49C G59U U101A A107G G126A it is ≤ -4.2.
The figure for A26U G71C G86U U109G is ≤ -4.2; for G25C A40U C87U C93A C95U it is ≤ -4.2; for A26U A49C C51U A91U G128A it is ≤ -4.2.
Turning to A26C C85A A89G C96U U135C A137U, the “polymerase ribozyme fitness (log ratio)” value was ≤ -4.2.
Take A26C C38U C85U C149A: the “polymerase ribozyme fitness (log ratio)” value was ≤ -4.2.
A26G C27G C87G C99A: the “polymerase ribozyme fitness (log ratio)” value is ≤ -4.2.
With G25C C69G C96A C99U C118A, the “polymerase ribozyme fitness (log ratio)” value is ≤ -4.2.
For the variant A26G C51U U55A U61G U134C U144G U146C, the “polymerase ribozyme fitness (log ratio)” value is ≤ -4.2.
For the variant G25U A29C, the “polymerase ribozyme fitness (log ratio)” value was ≤ -4.2.
Consider G25C C54U A73G G84A C85A A89C, for which the “polymerase ribozyme fitness (log ratio)” value was ≤ -4.2.
The figure for G25U G58U A97C is -2.23; for G25U C57G C75U C105U A107C it is ≤ -4.2; for A26C C27A U55G it is ≤ -4.2.
The figure for A26U A41U G70C C116A U139A is ≤ -4.2; for A26C A39U C51U C54A U61G it is ≤ -4.2.
The figure for A26G C93G A97G C99U C103A U146C is ≤ -4.2.
With A26U A47G U53A A73C G92A, the “polymerase ribozyme fitness (log ratio)” value was ≤ -4.2.
In the case of A26C G71U G84U, the “polymerase ribozyme fitness (log ratio)” value was ≤ -4.2.
Then G25U C69G G83U C95U G152U, with ≤ -4.2; and A26G A29U U82C C99U G100C U104A G117C, with ≤ -4.2.
The figure for A26U A28U U56A G84C G88C A89G A106C G136U C149G is ≤ -4.2; for G25C U31G A107U A137C it is ≤ -4.2; for G25U U44A U55A C93U G126U it is ≤ -4.2.
Then A26C A30U C96U U102C C103U U111G A113C A115U C125G, with ≤ -4.2.
With G25U C93G, the “polymerase ribozyme fitness (log ratio)” value was ≤ -4.2.
With A26U G84U G86U G136U U148G, the “polymerase ribozyme fitness (log ratio)” value is ≤ -4.2.
As for A26G C35U C95U A106G U148G, the “polymerase ribozyme fitness (log ratio)” value was ≤ -4.2.
Then A26G G83A G88A G94U C149G, with -4.19; and A26C C87G A98C, with ≤ -4.2.
Then A26C G50C C51U A52G C54G U56A G58A C99G, with ≤ -4.2.
For G25U A29U G62U C85G A142C, the “polymerase ribozyme fitness (log ratio)” value is ≤ -4.2.
A26C C27U A37G A60U C69G C85A U102C C125U: the “polymerase ribozyme fitness (log ratio)” value was ≤ -4.2.
Then A26C C72A C116U U139C, with ≤ -4.2.
As for A26C C51U A66G U77A C149G, the “polymerase ribozyme fitness (log ratio)” value was ≤ -4.2.
A26G G70U C96A C129U: the “polymerase ribozyme fitness (log ratio)” value is ≤ -4.2.
The figure for G25C C38G U45C G86A G94U U109G U146C is ≤ -4.2.
Take G25U G65C U127G U135A G140U: the “polymerase ribozyme fitness (log ratio)” value is ≤ -4.2.
The figure for G25U C43U U53A C76U C93U A120U is ≤ -4.2.
The figure for A26C C36G C116A U148G is ≤ -4.2; for A26U A73G G84U G92A A106U G117U it is ≤ -4.2.
The figure for A26U A30U C35A G81C C87G A91G G143C is ≤ -4.2.
With G25U A26G G68C A107G U135C, the “polymerase ribozyme fitness (log ratio)” value is ≤ -4.2.
For the variant A26U U44A U61A C116U, the “polymerase ribozyme fitness (log ratio)” value was ≤ -4.2.
As to A26C U53G G88C C96U C118A, the “polymerase ribozyme fitness (log ratio)” value was ≤ -4.2.
For the variant A26G G140A G143A, the “polymerase ribozyme fitness (log ratio)” value was ≤ -4.2.
The figure for A26C A39U G83A G94C G136U G140U C149A is ≤ -4.2.
As for G25C C54A C76A U77G C95U G100U, the “polymerase ribozyme fitness (log ratio)” value is ≤ -4.2.
The figure for A26U A60U G74C G81U C85G G92A U109G G133U A150U is ≤ -4.2; for A26U A122G C131A it is -3.89; for A26C U53A G58A it is -2.74.
A26C G42U C72U G94A A98C G100A C125A U139G: the “polymerase ribozyme fitness (log ratio)” value is ≤ -4.2.
As for A26G A60U C85A C93A U109A, the “polymerase ribozyme fitness (log ratio)” value was ≤ -4.2.
